# Measurements published in the supplement of paper PMC10441789.
# This is one part of the list. Antibody binding of pooled human sera (four to six donors per pool; dilution not stated) to peptides of the Trypanosoma cruzi antigen TSSA on microarrays. Quantile-normalised fluorescence in arbitrary units, mean of duplicate arrays; higher = more binding. No active / inactive call. The uninfected pools are read here as the healthy donors of the same country. The strongest signals lie near the top of the scale (about 60,000).
# Experiments:
# Test in all cases: antibody binding signal (normalised fluorescence) (arbitrary fluorescence units); higher = stronger serum antibody binding to peptide
# [1] = system: pooled sera of chronic Chagas disease patients, Bolivia
# Procedure: (§1)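 Microarray of 15-residue peptides over residues 30-55 of Trypanosoma cruzi TSSAII, each with 1 to 10 substitutions at naturally variable positions, probed with one serum pool per country.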
# [2] = system: pooled sera of chronic Chagas disease patients, Brazil
# Procedure: as §1
# [3] = system: pooled sera of chronic Chagas disease patients, Colombia
# Procedure: as §1
# [4] = system: pooled sera of chronic Chagas disease patients, Mexico
# Procedure: as §1
# [5] = system: pooled sera of chronic Chagas disease patients, USA
# Procedure: as §1
# [6] = system: pooled sera of uninfected people, Argentina
# Procedure: as §1
# [7] = system: pooled sera of uninfected people, Bolivia
# Procedure: as §1
# [8] = system: pooled sera of uninfected people, Brazil
# Procedure: as §1
# [9] = system: pooled sera of uninfected people, Colombia
# Procedure: as §1
# [10] = system: pooled sera of uninfected people, Mexico
# Procedure: as §1
# [11] = system: pooled sera of uninfected people, USA
# Procedure: as §1
Sequence,antibody binding signal [1],antibody binding signal [2],antibody binding signal [3],antibody binding signal [4],antibody binding signal [5],antibody binding signal [6],antibody binding signal [7],antibody binding signal [8],antibody binding signal [9],antibody binding signal [10],antibody binding signal [11]
KDNKAATGGAPSQSG,264,769,293,365,714,222,1010,139,123,91.6,85.3
GTEKKTATGGTPSPP,523,1080,5540,1760,3190,303,734,456,908,134,147
PPSGKDKKTAAGGTP,350,464,4510,19900,2180,107,459,313,192,113,131
SGTDNKTAAGEAPSQ,13000,41100,273,226,7030,119,691,1350,178,118,167
GKENKAAAGEAPSPS,2250,22200,21000,17000,25400,630,132,113,162,114,130
KENKAAAGGTPSPPG,232,200,1140,145,920,102,77.1,306,135,78.8,99.3
KKTATGGTPSQPGAS,474,338,1740,217,1260,490,162,215,199,468,280
PPSGTDNKTATGGTP,35700,47000,722,1970,4900,614,660,1650,391,329,264
KDNKPAAGGTPSQSG,199,217,545,158,242,225,192,312,195,146,104
ISTPPSGKEKKPATG,250,396,237,36800,453,510,552,126,267,96.8,239
DNKAAAGGAPSPPGA,456,608,3730,272,895,364,371,237,533,476,229
KENKAATGGAPSQPG,361,17000,247,270,2920,232,96,107,98.2,93.3,179
GKDKKTAAGGAPSPS,238,192,3100,457,367,147,112,128,148,95.7,129
